Experimental data as given in PubChem BioAssay AID588342 (National Center for Advancing Translational Sciences (NCATS), 2011).
Hit rate of the full screen: of about 360,000 compounds, about 25,000 (6.9%) were called active. Inconclusive means that the source gave no clear call. Such entries were picked first, then a sample of the others. Calls come from the whole dose curve; as a rule, active = well fitted inhibition curve with a large enough effect; inconclusive = small, poorly fitted or top-dose-only effect; inactive = flat fitted curve, though single readings scatter. A potency beside an inconclusive call is a rough fit, not a confirmed value.

What follows are molecules tested against Luciferin 4-monooxygenase (Photinus pyralis) (UniProt P08659) (assay: qHTS profiling assay for firefly luciferase inhibitor/activator using purifed enzyme and Km concentrations of substrates (counterscreen for miR-21 project)). Conditions: purified FLuc, luminescence inhibition; series mostly up to 57.5 µM.
Chain of UniProt P08659 (P08659 whole entry, looked up): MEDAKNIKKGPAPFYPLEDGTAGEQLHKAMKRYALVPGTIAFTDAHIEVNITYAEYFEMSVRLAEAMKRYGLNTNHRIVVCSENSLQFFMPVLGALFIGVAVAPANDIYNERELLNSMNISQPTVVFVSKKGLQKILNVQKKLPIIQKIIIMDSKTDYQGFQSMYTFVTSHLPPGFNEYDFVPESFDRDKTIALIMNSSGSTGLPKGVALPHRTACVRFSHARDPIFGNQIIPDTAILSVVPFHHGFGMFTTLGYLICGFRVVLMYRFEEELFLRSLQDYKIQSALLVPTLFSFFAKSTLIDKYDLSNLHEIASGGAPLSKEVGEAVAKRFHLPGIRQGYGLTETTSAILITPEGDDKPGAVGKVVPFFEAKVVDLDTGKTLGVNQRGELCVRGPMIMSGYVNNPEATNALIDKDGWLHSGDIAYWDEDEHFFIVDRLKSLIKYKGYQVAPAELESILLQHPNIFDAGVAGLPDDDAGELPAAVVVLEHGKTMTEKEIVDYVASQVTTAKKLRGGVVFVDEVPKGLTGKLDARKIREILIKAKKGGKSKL
Summary of the method: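 Purified P. pyralis luciferase (10nM final) with 10uM D-luciferin and 10uM ATP (Km levels) in 50mM Tris acetate pH 7.5, 10mM Mg acetate, 0.01% Tween-20, 0.05% BSA; qHTS 6-point titration, ~60 µM downward; luminescence read.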
Note: nearly all actives have a fitted effect of over 55% in size.
Potency is the fitted concentration of half-maximal effect; tags give direction and shape of the fitted curve.

**Q.** How did the Potency turn out when `O=S1(=O)N=C(N=Nc2c(O)[nH]c3ccccc23)c2ccccc21` was run?
**A.** The Potency was inconclusive: 26.9 µM [inhibitor, single point].

**Q.** Which Potency does the source give for `Nc1cc(N)cc(C(=O)Nc2ccc3c(c2)C(=O)NC3=O)c1` here?
**A.** The Potency was inconclusive: 23.9 µM [inhibitor, single point].

**Q.** With `CCN(CC)C(=O)c1cccc(-c2ccc(OC)cc2)c1` as the molecule, how does the Potency read?
**A.** The Potency was inconclusive: 21.3 µM [inhibitor, single point].

**Q.** How did the Potency turn out when `C[C@H](NC(=O)C1CCN(S(=O)(=O)c2ccccc2)CC1)C(=O)NCc1ccc(Cl)cc1Cl` was run?
**A.** The Potency was “inactive”.

**Q.** Which Potency does the source give for `Cc1c(NC(=O)CSCc2ccc(Cl)cc2Cl)cccc1C(=O)O` here?
**A.** The Potency was inconclusive: 30.1 µM [inhibitor, single point].

**Q.** `Cn1c(=S)[nH]c2scc(-c3cccs3)c2c1=O` was tested. Which Potency did it give?
**A.** Its Potency is inconclusive: 26.9 µM [inhibitor, single point].

**Q.** For `COc1ccc2nc(SCC(=O)O)nc(C)c2c1`, which Potency is on record?
**A.** Its Potency is “inactive”.

**Q.** For `Cc1ccc(-c2nc3cc(N)ccc3o2)cc1`, which Potency is on record?
**A.** Its Potency is active: 0.601 µM.

**Q.** `CCOC(=O)c1sc(=NC(=O)c2ccco2)n(C)c1C` was tested. Which Potency did it give?
**A.** The Potency was active: 15.1 µM.

**Q.** With `O=C(Nc1nc2ccccc2[nH]1)c1ccc(Br)o1` as the molecule, how does the Potency read?
**A.** The Potency was active: 9.53 µM.

**Q.** Which Potency does the source give for `Cc1nc2cc(-c3sccc3-n3cccc3)nn2c(C)c1C` here?
**A.** Its Potency is inconclusive: 23.9 µM [inhibitor, partial curve, poor fit].

**Q.** How did the Potency turn out when `CCOc1ccc(-c2nc(C#N)c(NCc3ccc4c(c3)OCO4)o2)cc1` was run?
**A.** Its Potency is “inactive”.

**Q.** For `COc1cccc(-c2noc(-c3ccc(Cl)nc3)n2)c1`, which Potency is on record?
**A.** The Potency was inconclusive: 2.69 µM [inhibitor, full curve].

**Q.** `O=C1CS/C(=N\N=C\c2ccco2)N1c1ccccc1` was tested. Which Potency did it give?
**A.** The Potency was inconclusive: 37.9 µM [inhibitor, single point].

**Q.** Which Potency does the source give for `CCCCCN(C(=O)NC(=O)Nc1ccc(C)cc1)S(=O)(=O)c1ccccc1` here?
**A.** Its Potency is inconclusive: 37.9 µM [inhibitor, partial curve, poor fit].

**Q.** How did the Potency turn out when `COCCCNC(=O)C1=CCN(S(=O)(=O)c2ccc(OC)cc2)CC1` was run?
**A.** The Potency was “inactive”.

**Q.** How did the Potency turn out when `C(=C\c1ccccc1)/C=N/N1CCN(Cc2ccccc2)CC1` was run?
**A.** The Potency was inconclusive: 26.9 µM [inhibitor, single point].

**Q.** `O=C(c1ccc(-n2cncn2)c([N+](=O)[O-])c1)N1CCN(S(=O)(=O)c2ccc(Cl)cc2)CC1` was tested. Which Potency did it give?
**A.** The Potency was “inactive”.

**Q.** With `O=C(O)/C=C\c1ccccc1Oc1ccc(F)cc1` as the molecule, how does the Potency read?
**A.** The Potency was inconclusive: 23.9 µM [inhibitor, partial curve].

**Q.** `Cc1cc2oc(C(=O)NCCc3ccc(S(N)(=O)=O)cc3)c(C)c2cc1C` was tested. Which Potency did it give?
**A.** Its Potency is “inactive”.

**Q.** With `CN1CCC(N(C)S(=O)(=O)c2ccc(NC(=O)COc3ccc(Br)cc3Cl)cc2)CC1` as the molecule, how does the Potency read?
**A.** Its Potency is inconclusive: 37.9 µM [inhibitor, single point].

**Q.** With `Cc1ccc(CNC(=O)c2c[nH]c3ccc(S(=O)(=O)Nc4ccc(C(C)C)cc4)cc3c2=O)cc1` as the molecule, how does the Potency read?
**A.** Its Potency is inconclusive: 10.7 µM [inhibitor, partial curve, poor fit].

**Q.** How did the Potency turn out when `CCn1c(CCC(=O)Nc2nc3c(s2)CCCC3)nc2cc(S(=O)(=O)N(C)C)ccc21` was run?
**A.** Its Potency is inconclusive: 30.1 µM [inhibitor, partial curve, poor fit].

**Q.** With `CCCc1nnc(NC(=O)C23CC4CC(CC(C4)C2)C3)s1` as the molecule, how does the Potency read?
**A.** Its Potency is inconclusive: 21.3 µM [inhibitor, partial curve, poor fit].

**Q.** With `O=c1n(Cc2ccc(F)cc2Cl)c2ccccc2c2nc(-c3ccccc3)nn12` as the molecule, how does the Potency read?
**A.** The Potency was “inactive”.

**Q.** `CC1Cc2ccccc2N1S(=O)(=O)c1nnc(NC(=O)c2ccccc2Br)s1` (stereo not given) was tested. Which Potency did it give?
**A.** Its Potency is “inactive”.

**Q.** Which Potency does the source give for `CCC(Sc1nc2ccc(C)cc2[nH]1)C(=O)O` (stereo not given) here?
**A.** The Potency was inconclusive: 21.3 µM [inhibitor, partial curve, poor fit].

**Q.** With `C=CCN1C(=O)/C(=C\C(C)=C\c2ccccc2)SC1=S` as the molecule, how does the Potency read?
**A.** Its Potency is active: 8.49 µM.

**Q.** Which Potency does the source give for `COc1ccc(-c2csc(NC(=O)CC(C)C)n2)cc1` here?
**A.** Its Potency is inconclusive: 10.7 µM [inhibitor, partial curve].

**Q.** With `COc1ccc(CCNC(=O)c2ccc(COc3ccccc3OC)o2)cc1` as the molecule, how does the Potency read?
**A.** The Potency was inconclusive: 23.9 µM [inhibitor, single point].

**Q.** How did the Potency turn out when `COc1ccc2c(c1)c(=O)oc1cc(O)ccc12` was run?
**A.** The Potency was inconclusive: 10.7 µM [inhibitor, partial curve, poor fit].

**Q.** How did the Potency turn out when `CCc1cc2c(SCC(=O)c3ccccc3)ncnc2s1` was run?
**A.** The Potency was inconclusive: 21.3 µM [inhibitor, partial curve].

**Q.** `COC(=O)c1c(C)oc2c1cc(NS(=O)(=O)c1c(C)cc(C)cc1C)c1ccccc12` was tested. Which Potency did it give?
**A.** Its Potency is inconclusive: 6.75 µM [inhibitor, partial curve, poor fit].

**Q.** With `Cc1occc1C(=O)N/N=C/c1ccc(Cl)c([N+](=O)[O-])c1` as the molecule, how does the Potency read?
**A.** Its Potency is inconclusive: 6.01 µM [inhibitor, partial curve, poor fit].

**Q.** For `CCC(C)(C)n1nnnc1C(c1ccc(O)c(OC)c1)N1CCc2ccccc2C1` (stereo not given), which Potency is on record?
**A.** Its Potency is inconclusive: 10.7 µM [inhibitor, partial curve, poor fit].

**Q.** For `Cc1cc(NC(=O)CCC(=O)N(CC(=O)NC2CCCC2)c2ccc(C(C)C)cc2)no1`, which Potency is on record?
**A.** The Potency was “inactive”.

**Q.** With `CC(C)(C)S(=O)(=O)/C(C#N)=N/Nc1ccc(C#N)cc1` as the molecule, how does the Potency read?
**A.** The Potency was inconclusive: 30.1 µM [inhibitor, partial curve, poor fit].

**Q.** How did the Potency turn out when `CCOc1ccc(-c2cn[nH]c2N)cc1` was run?
**A.** Its Potency is inconclusive: 21.3 µM [inhibitor, partial curve, poor fit].

**Q.** Which Potency does the source give for `O=C(Nc1cccc(-c2nnc(-c3ccccc3)o2)c1)C1CCCO1` (stereo not given) here?
**A.** The Potency was inconclusive: 19 µM [inhibitor, partial curve].

**Q.** Which Potency does the source give for `CCOC(=O)N1CCN(C(=O)CNC(=O)c2nn(-c3ccc(OC)cc3OC)c(=O)c3ccccc23)CC1` here?
**A.** Its Potency is active: 3.79 µM.

**Q.** For `CC(C)(Oc1ccc(CCNC(=O)c2ccc(-c3ccc(Cl)cc3)o2)cc1)C(=O)O`, which Potency is on record?
**A.** Its Potency is active: 23.9 µM.

**Q.** How did the Potency turn out when `COc1cccc(NC(=O)COC(=O)c2c(F)cccc2Cl)c1` was run?
**A.** Its Potency is inconclusive: 26.9 µM [inhibitor, partial curve].

**Q.** How did the Potency turn out when `NC1=NC(=Nc2cccc(Cl)c2)c2ccccc21` was run?
**A.** Its Potency is inconclusive: 23.9 µM [inhibitor, single point].

**Q.** For `CCOC(=S)SCc1cn2ccccc2n1`, which Potency is on record?
**A.** The Potency was inconclusive: 33.8 µM [inhibitor, partial curve, poor fit].

**Q.** For `COc1cccc(OC)c1C(=O)Nc1nc(COc2ccccc2)cs1`, which Potency is on record?
**A.** Its Potency is inconclusive: 23.9 µM [inhibitor, single point].

**Q.** With `CCOc1cc(/C=C2\C(=O)N(c3ccc(C(N)=O)cc3)N=C2C)ccc1OC(=O)c1cccs1` as the molecule, how does the Potency read?
**A.** Its Potency is inconclusive: 9.53 µM [inhibitor, partial curve].

**Q.** For `COc1ccc(S(=O)(=O)Nc2nnc(CC(C)(C)C)s2)cc1`, which Potency is on record?
**A.** The Potency was inconclusive: 26.9 µM [inhibitor, partial curve, poor fit].

**Q.** With `CCN(CC)c1ccc(NC(=S)Nc2ccc(F)cc2)cc1` as the molecule, how does the Potency read?
**A.** The Potency was inconclusive: 30.1 µM [inhibitor, partial curve, poor fit].

**Q.** For `COc1cc(-c2nnc3n(CCc4ccccc4)c(=O)c4ccccc4n23)cc(OC)c1OC`, which Potency is on record?
**A.** Its Potency is “inactive”.

**Q.** `O=C(CSc1ccc(F)cc1)Nc1ccc(C2SCCS2)cc1` was tested. Which Potency did it give?
**A.** The Potency was active: 10.7 µM.

**Q.** For `CN(C)c1ccc(C(=O)NCc2ccc3c(c2)OCO3)cc1`, which Potency is on record?
**A.** Its Potency is inconclusive: 37.9 µM [inhibitor, partial curve, poor fit].

**Q.** `Cc1noc(NS(=O)(=O)c2ccc(NC(=O)COc3ccccc3Br)cc2)c1C` was tested. Which Potency did it give?
**A.** The Potency was inconclusive: 12 µM [inhibitor, partial curve].

**Q.** Which Potency does the source give for `COc1ccccc1/C=C/C=N/n1c(-c2ccc(Cl)cc2)n[nH]c1=S` here?
**A.** The Potency was inconclusive: 9.53 µM [inhibitor, partial curve, poor fit].

**Q.** `O=C(COC(=O)C1CCC1)NC(=O)c1ccccc1` was tested. Which Potency did it give?
**A.** Its Potency is inconclusive: 23.9 µM [inhibitor, single point].

**Q.** How did the Potency turn out when `COc1ccc2cc(C3OCCO3)c(Cl)nc2c1` was run?
**A.** Its Potency is active: 12 µM.

**Q.** `CC(=O)c1c(C)nc2ccc(Br)cc2c1-c1ccccc1` was tested. Which Potency did it give?
**A.** The Potency was inconclusive: 30.1 µM [inhibitor, partial curve, poor fit].

**Q.** For `COc1ccc(/C=C2\SC(=S)N(CCCC(=O)Nc3ccc(O)cc3)C2=O)cc1`, which Potency is on record?
**A.** Its Potency is inconclusive: 15.1 µM [inhibitor, partial curve].

**Q.** `O=[N+]([O-])c1ccc(N2CCN(S(=O)(=O)Cc3ccccc3)CC2)cc1N1CCOCC1` was tested. Which Potency did it give?
**A.** Its Potency is “inactive”.

**Q.** How did the Potency turn out when `Cc1cccc(-c2nnc(-c3ccc(N)cc3)o2)c1` was run?
**A.** The Potency was active: 3.38 µM.

**Q.** Which Potency does the source give for `COc1cccc(CNC(=O)c2ccc(C3SCCS3)cc2)c1` here?
**A.** Its Potency is active: 16.9 µM.

**Q.** `C=C(C)n1c(=O)n(Cc2ccccc2C)c2ccccc21` was tested. Which Potency did it give?
**A.** Its Potency is “inactive”.

**Q.** For `Cc1nn(CC(=O)Nc2nnc(C(C)C)s2)c(=O)c2ccccc12`, which Potency is on record?
**A.** The Potency was inconclusive: 16.9 µM [inhibitor, partial curve, poor fit].

**Q.** Which Potency does the source give for `CC(C)c1ccc(NC(=O)c2cccnc2)cc1` here?
**A.** The Potency was active: 16.9 µM.

**Q.** For `COc1ccc(C(=O)O/N=C(/c2ccccc2)c2ccncc2)cc1`, which Potency is on record?
**A.** The Potency was inconclusive: 37.9 µM [inhibitor, partial curve, poor fit].

**Q.** Which Potency does the source give for `N=C1C(c2nc3ccccc3[nH]2)=C(O)CN1c1ccccc1` here?
**A.** The Potency was active: 8.49 µM.

**Q.** `Cc1ccc(OC(=S)Nc2ccccc2)c(C)c1` was tested. Which Potency did it give?
**A.** Its Potency is inconclusive: 26.9 µM [inhibitor, partial curve, poor fit].

**Q.** Which Potency does the source give for `CCOC(=O)c1cnc2c(Cl)c(Cl)ccc2c1Nc1ccc(N(C)C)cc1` here?
**A.** Its Potency is “inactive”.

**Q.** How did the Potency turn out when `Cc1ccccc1-n1c(=O)c2ccccc2n(Cc2ccc(F)cc2)c1=O` was run?
**A.** Its Potency is “inactive”.

**Q.** How did the Potency turn out when `Nc1nonc1C(=O)N/N=C/c1cccc([N+](=O)[O-])c1` was run?
**A.** The Potency was active: 12 µM.

**Q.** For `COc1ccc(C2CC(=O)N(Cc3cccc(C)c3)c3c2c(C)nn3-c2nc(C)cc(C)n2)c(OC)c1` (stereo not given), which Potency is on record?
**A.** The Potency was “inactive”.
